Laboratory results taken from ChEMBL document CHEMBL1201862, “PubChem BioAssay data set” (2004).
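96-well plates; 48 h exposure; 5 concentrations. Endpoints by linear interpolation between flanking doses. Not reached: highest tested concentration assigned. The concentration for 50% growth inhibition is given as GI50.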 Activity calls are given as the source filed them. Rule as the data show it: active = GI50 up to about 1.1 µM and inactive = higher.

Tested on: NCI-H322M
Assay: NCI tumour cell line growth inhibition, 48 h

| SMILES | GI50 |
| --- | --- |
| CN1CCN(Cc2ccccc2)CC1CC#N (stereo unspecified) | inactive: > 100 µM |
| CCCCCCCCCCCCCCCCCCOCC(C[N+]1(C)CCC(O)CC1)OCC (stereo unspecified) | inactive: 11.1 µM |
| NC(CCOCCP(=O)(O)CCC1C=CC=CC1)C(=O)O (stereo unspecified) | inactive: > 100 µM |
| CCN(CCN(CC)C(=O)Nc1ccccc1)C(=O)Nc1ccccc1 | inactive: > 100 µM |
| CC(=O)NC1(C)C(C)C2CC1C(C)C2(C)C (stereo unspecified) | inactive: > 100 µM |
| CC#COS(=O)(=O)c1ccc(C)cc1 | inactive: > 100 µM |
| CC1CCc2c(sc3ncnc(N/N=C/c4ccc(Cl)c(Cl)c4)c23)C1 (stereo unspecified) | inactive: 25.1 µM |
| C[N+](C)(CCCCCC[N+](C)(C)CCCN1C(=O)c2cccc3cccc(c23)C1=O)CCCN1C(=O)c2cccc3cccc(c23)C1=O | inactive: > 100 µM |
| Cc1cc(NS(=O)(=O)c2ccc(Nc3c4ccccc4nc4c(C(=O)NCCN(C)C)cccc34)cc2)no1 | inactive: 9.48 µM |
| O=C(NNc1nc(-c2ccccc2)cs1)Nc1ccccc1 | inactive: 25 µM |
| CC1CCCc2c(CC3CC(=O)NC(=O)C3)nc(N)nc21 (stereo unspecified) | inactive: > 100 µM |
| O=C1CSC(c2cc3cc(Br)ccc3nc2Cl)N1c1ccc(F)c(Cl)c1 (stereo unspecified) | inactive: > 50 µM |
| CO/N=C(/C)c1cccc(Nc2nc3ccccc3c3[nH]c4ccccc4c23)c1 | inactive: 3.01 µM |
| O=S(=O)(N=S(c1ccc(Cl)cc1)c1ccc(Cl)cc1)c1ccccc1 | inactive: > 100 µM |
| COC(=O)CCc1cc(OC)c2oc(-c3ccc(OC)c(OC)c3)c(CO)c2c1 | inactive: > 100 µM |
| CCN(CC)C(=O)Cc1c(C(=O)N(CC)CC)c(=O)nc2sccn12 | inactive: > 100 µM |
| CCOC(=O)CN1C(=O)c2c(c(C)n(-c3ccccc3)c2C)C1=O | inactive: > 100 µM |
| COC(=O)C1=C(O)C(C(=O)OC)[C@]2(O)[C@H](C(=O)OC)[C@H]1C[C@@H](c1c(Cl)cccc1Cl)[C@H]2C(=O)OC (stereo partly specified) | inactive: 3.78 µM |
| COc1ccc(C2SCC(=O)N2NC(=O)C(C)Oc2ccccc2C)cc1 (stereo unspecified) | inactive: > 100 µM |
| C/C(CC(=O)Nc1ccc(Cl)cc1)=N\NC(=O)C[n+]1ccccc1 | inactive: > 100 µM |
| Cc1cc(C)[n+](CCOc2ccc(/C(=C(/Cl)c3ccccc3)c3ccccc3)cc2)c(C)c1.[O-][Cl+3]([O-])([O-])[O-] | inactive: 3.13 µM |
| O=C(Nc1ccc(Cl)cc1)/C(Cc1cccc[n+]1[O-])=N\Nc1ccc([N+](=O)[O-])cc1[N+](=O)[O-] | inactive: > 100 µM |
| Cn1c(=O)c2nc(SCCN3CCOCC3)[nH]c2n(C)c1=S | inactive: > 100 µM |

| SMILES | GI50 |
| --- | --- |
| CN(C)CCCNC(=O)N/N=C/c1ccc(O)cc1 | inactive: > 100 µM |
| COc1ccc2c(O)c(Oc3ccc(Cl)cc3)c(=O)oc2c1 | inactive: > 100 µM |
| CC(=O)O[C@@H]1[C@H](OC2CCCCC2(c2ccccc2)c2ccccc2)O[N+]([O-])=CC12CCCCC2 (stereo partly specified) | inactive: 16.4 µM |
| O=C(c1ccc2ccccc2c1O)N1CCCCC1 | inactive: > 100 µM |
| COC(=O)C1=Cc2cc3c(cc2[C@H](c2ccc4c(c2)OCO4)C1C(=O)OC)OCO3 (stereo partly specified) | inactive: > 100 µM |
| CNC(=O)OC(C)CN1c2ccccc2Sc2ccccc21 (stereo unspecified) | inactive: 84.5 µM |
| COc1ccc(-c2oc3cc(-c4cc5oc(-c6ccc(OC)cc6)c(-c6ccc(OC)cc6)c5cc4OC)c(OC)cc3c2-c2ccc(OC)cc2)cc1 | inactive: > 100 µM |
| O=C(CCc1cccc(O)c1)NCCc1cccc(O)c1 | inactive: > 100 µM |
| CC(=O)O[C@@H]1CC[C@@]2(C)C(CC[C@H]3[C@@H]4CC[C@H]([C@H](C)CCc5nc6cc(C)ccc6[nH]5)[C@@]4(C)CC[C@@H]32)C1 (stereo partly specified) | inactive: 32.2 µM |
| O=C1C(Cl)=C(Nc2ccc(S(=O)(=O)Nc3ccccn3)cc2)C(=O)c2ccccc21 | inactive: 18.5 µM |
| CC12Nc3c(Cl)cc(Cl)cc3N1C(=O)c1ccccc12 (stereo unspecified) | inactive: > 100 µM |
| COC1/C=C\C=C(/C)C(=O)NC2=CC(=O)C(N)=C(CC(C)CC(OC)C(O)C(C)C=C(C)C1OC(N)=O)C2=O (stereo unspecified) | inactive: 12.3 µM |
| COc1ccc(C(c2ccccc2)N2C(=O)CCC2C(=O)O)cc1OC (stereo unspecified) | inactive: > 100 µM |
| Cc1cccnc1N/C=C1\C(=O)NC(=O)N(C)C1=O | inactive: > 100 µM |
| Nc1ccc(I)cn1 | inactive: > 100 µM |
| N#C[C@@H](c1ccccn1)c1ncccc1[N+](=O)[O-] | inactive: > 100 µM |
| Cc1cc(N(CCC#N)CCC#N)ccc1/C=C(\N=[N+]=[N-])C(=O)NC(=O)COc1ccccc1 | inactive: > 100 µM |
| CCSC1=CC(Cc2ccc(OC)cc2)N(C(=O)OC)C1 (stereo unspecified) | inactive: > 100 µM |
| Cc1ccc(NC(=O)/C(Cc2cc(=O)oc3cc(O)ccc23)=N\NC(C)(C)C)cc1C | inactive: > 100 µM |
| CC(=O)NS(=O)(=O)c1ccc(NC(=O)c2c3ccccc3nc3ccccc23)cc1 | inactive: > 100 µM |
| C/C(CCn1[nH]c(=O)ccc1=O)=N\Nc1ccc([N+](=O)[O-])cc1[N+](=O)[O-] | inactive: > 100 µM |
| Cc1ccc(S(=O)(=O)OCC/C(=C\[Si](C)(C)C)c2ccccc2)cc1 | inactive: > 100 µM |
| Brc1ccc2c3c1[C@H]1O[C@H]1c1cccc(c1-3)[C@@H]1O[C@H]21 | inactive: 15.6 µM |

| SMILES | GI50 |
| --- | --- |
| CC(=O)NNC1=NN(C(C)=O)C2(S1)C(=O)Nc1ccccc12 (stereo unspecified) | inactive: > 100 µM |
| CC(O)[C@@]1(c2ccccc2)CC2(CCN(C)CC2)O[C@H]1C (stereo partly specified) | inactive: > 100 µM |
| O=[N+]([O-])c1c2nc3n(c2cc2c1nc1n2CCC1)CCC3 | inactive: > 100 µM |
| O=C(Nn1c(-c2ccccc2)nc2ccccc2c1=O)c1ccccc1O | inactive: 71.4 µM |
| CC(=O)CC(O)(C(F)(F)Cl)C(F)(F)Cl | inactive: > 10 µM |
| CNC1C(OC2C(OC3C(O)C(O)C(O)C(O)C3O)OC(C)C2(O)CO)OC(CO)C(O)C1O.N=C(N)N.NC(=O)O (stereo unspecified) | inactive: > 100 µM |
| Cc1cn(C2CC(ON3C(=O)c4ccccc4C3=O)C(CO)O2)c(=O)[nH]c1=O (stereo unspecified) | inactive: > 10 µM |
| O=C(CC(O)c1cccnc1)CC(O)c1cccnc1 (stereo unspecified) | inactive: 17.2 µM |
| CSc1ncnc2c1ncn2CCC(=O)OC(C)(C)C | inactive: > 100 µM |
| CC(=C(C(=O)O)C(=O)O)c1cc(-c2cccs2)cc(-c2ccc(Cl)cc2)c1O | inactive: 18.1 µM |
| c1ccc2cc(CNCCOCCOCCNCc3ccc4ccccc4c3)ccc2c1 | inactive: 1.59 µM |
| COc1cccc(C[C@H]2COC(=O)[C@]2(O)Cc2cccc(OC)c2)c1 | inactive: > 100 µM |
| CCOC(=O)P(=O)(O)c1ccc(N(C)Cc2ccccc2)cc1 | inactive: > 100 µM |
| O=[N+]([O-])c1ccc(CSc2c3ccccc3nc3ccccc23)cc1 | inactive: 8.47 µM |
| O=C(CCN1CCCCC1)Nc1ccc2sc3ccccc3c(=O)c2n1 | inactive: 17.5 µM |
| O=C(c1c(Cl)cc(Cl)cc1Cl)N(Cc1cccnc1)C(=S)N(Cc1cccnc1)C(=O)c1c(Cl)cc(Cl)cc1Cl | inactive: 7 µM |
| C[n+]1ccc(/C2=C3\C=CC(=N3)/C(c3cc[n+](C)cc3)=c3/cc/c([nH]3)=C(\c3cc[n+](C)cc3)C3=N/C(=C(/c4cc[n+](C)cc4)C4C=CC2N4)C=C3)cc1 | inactive: > 100 µM |
| CCOC(=O)C1(C(=O)OCC)Nc2cccnc2N(C)N1 | inactive: > 100 µM |
| CSc1nc2c(nc(N)n2C2OCC(O)C(O)C2O)c(=O)[nH]1 (stereo unspecified) | inactive: > 100 µM |
| CCOC(=O)c1cccc(/N=N/Nc2cccc(C(=O)OCC)c2)c1 | inactive: 88.7 µM |
| O=c1nc(NC(c2ccccc2)(c2ccccc2)c2ccccc2)ccn1CCCl | inactive: 25.4 µM |
| COc1ccc(Cc2nn(C3OC(COC(C)=O)C(OC(C)=O)C(OC(C)=O)C3OC(C)=O)c(=S)n(-c3ccc(OC)cc3)c2=O)cc1 (stereo unspecified) | inactive: > 100 µM |
| CN/N=C(/C=C/c1ccccc1)C(C)C | inactive: > 100 µM |

| SMILES | GI50 |
| --- | --- |
| CC1=C(Cl)C[C@@H](/C(C)=C\Cl)O[C@@]1(O)C(Br)Br | inactive: > 100 µM |
| Brc1ccc2[nH]cc([C@@H]3CN[C@@H](c4c[nH]c5ccc(Br)cc45)CN3)c2c1 | inactive: 4.57 µM |
| CCc1c(CNC2=NCCN2)c(CC)c(CNC2=NCCN2)c(CC)c1CNC1=NCCN1 | inactive: > 100 µM |
| CC1(C)C(N2CCOCC2)CS1(=O)=O (stereo unspecified) | inactive: > 10 µM |
| COc1cc(C=O)cc(/C=N/c2ccc(S(N)(=O)=O)cc2)c1O | inactive: 17.5 µM |
| C[C@]12CCC3[C@@H](C[C@H]4OC(=O)[C@@]35CCC(=O)C=C45)C1CCC2=O (stereo partly specified) | inactive: > 100 µM |
| CSc1cc(C(C)(C)C)ccc1C(O)c1ccc(C(C)(C)C)cc1SC | inactive: 14.3 µM |
| O=C(O)CSc1ccccc1C(=O)O | inactive: > 100 µM |
| COc1cccc(C2c3cc4c(cc3OC(NNS(=O)(=O)c3ccc(C)cc3)C2C)OCO4)c1O (stereo unspecified) | inactive: 32.1 µM |
| NCCN1C(=O)CN=C(c2ccc(Cl)cc2)c2cc(Cl)ccc21 | inactive: 18.1 µM |
| CN(C)c1ccc(C=c2c3cc(O)ccc3n3c2cc(-c2ccccc2)[n+]3C)cc1 | inactive: 2.69 µM |
| COc1cc(C=C2C(C)=NN(c3cccc(Cl)c3)C23C(Cl)C(=O)N3c2nc3ccccc3s2)ccc1O (stereo unspecified) | inactive: 19.5 µM |
| CN1C(=O)C2(C)SC1(c1ccccc1)C1C(=O)N(c3ccccc3)C(=O)C12 (stereo unspecified) | inactive: > 100 µM |
| CCCNC(=S)N/N=C(\C)c1ccc(S(=O)(=O)N(C)c2ccccc2)cc1 | inactive: > 100 µM |
| C/C(=C1/N=C(c2ccccc2)OC1=O)c1cccs1 | inactive: > 100 µM |
| CCOC(=O)C1(C#N)C(C#N)(C#N)C1(C#N)C#N | inactive: > 100 µM |
| CCOc1ccc2c(c1)[n+]([O-])c(-c1ccc([N+](=O)[O-])cc1)c(N)[n+]2[O-] | inactive: > 100 µM |
| CCCCCCCCC1=CCC(CN(C)C)C1=O (stereo unspecified) | inactive: > 87.7 µM |
| CCCCCCCCCCCCCCCCCCC1=C(O)C(=O)C=C(OC)C1=O | inactive: > 100 µM |
| O=C(Nc1sccc1S(=O)(=O)c1ccc(Cl)cc1)c1ccc(Cl)cc1Cl | inactive: 98.4 µM |
| O=C1C(/N=N/c2ccc(-c3nc4ccccc4o3)cc2)NC(=S)N1c1ccccc1 (stereo unspecified) | inactive: > 100 µM |
| C=CCCCC(C#N)(c1ccccc1)N1CCCC1 (stereo unspecified) | inactive: > 100 µM |
